# Data from the supplement of paper PMC6451100.
# The list shows a part of the results. Values come from read counts of a selection and are noisy.
# Biological target: T1, Drosophila AGO2 (FLAG-tagged, S2-R+ lysate) (UniProt Q9VUQ5)
# T1 sequence: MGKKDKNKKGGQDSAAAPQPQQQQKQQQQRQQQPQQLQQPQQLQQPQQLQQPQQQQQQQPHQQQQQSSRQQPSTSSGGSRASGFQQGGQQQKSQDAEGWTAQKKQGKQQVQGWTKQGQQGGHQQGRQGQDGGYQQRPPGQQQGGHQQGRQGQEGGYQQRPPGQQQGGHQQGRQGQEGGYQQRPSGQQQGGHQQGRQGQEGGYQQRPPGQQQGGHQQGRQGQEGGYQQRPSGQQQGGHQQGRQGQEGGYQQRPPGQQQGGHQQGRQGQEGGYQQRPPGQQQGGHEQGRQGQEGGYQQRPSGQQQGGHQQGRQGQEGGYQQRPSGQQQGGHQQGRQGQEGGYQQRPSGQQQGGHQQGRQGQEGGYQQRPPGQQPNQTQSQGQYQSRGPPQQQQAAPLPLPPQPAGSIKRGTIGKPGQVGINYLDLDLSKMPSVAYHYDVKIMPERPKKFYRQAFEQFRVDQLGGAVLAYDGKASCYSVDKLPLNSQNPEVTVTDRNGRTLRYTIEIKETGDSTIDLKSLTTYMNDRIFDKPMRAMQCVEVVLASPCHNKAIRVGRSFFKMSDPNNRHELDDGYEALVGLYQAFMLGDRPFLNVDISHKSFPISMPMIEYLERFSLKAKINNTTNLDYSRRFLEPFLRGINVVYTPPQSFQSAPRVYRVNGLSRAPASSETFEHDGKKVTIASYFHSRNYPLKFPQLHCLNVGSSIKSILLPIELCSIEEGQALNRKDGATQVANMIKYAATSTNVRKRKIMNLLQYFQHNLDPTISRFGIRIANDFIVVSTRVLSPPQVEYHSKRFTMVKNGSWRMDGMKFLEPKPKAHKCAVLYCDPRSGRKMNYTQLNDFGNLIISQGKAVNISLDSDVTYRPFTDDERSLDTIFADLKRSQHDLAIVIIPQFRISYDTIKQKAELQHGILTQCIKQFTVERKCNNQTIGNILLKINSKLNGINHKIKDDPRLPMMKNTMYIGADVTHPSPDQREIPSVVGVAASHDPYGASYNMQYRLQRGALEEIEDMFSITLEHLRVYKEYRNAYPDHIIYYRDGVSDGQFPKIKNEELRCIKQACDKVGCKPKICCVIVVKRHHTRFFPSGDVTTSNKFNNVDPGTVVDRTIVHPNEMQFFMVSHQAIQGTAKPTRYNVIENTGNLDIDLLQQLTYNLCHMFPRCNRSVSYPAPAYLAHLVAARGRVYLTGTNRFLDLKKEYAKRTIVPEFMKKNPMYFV
# Experiment: AGO2 loading enrichment factor (IP read count / input read count, not library-size normalised) (ratio); higher = more efficient loading into AGO2
# Settings: randomized region: 5' 5N of miR-317 loop
# Experimental: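 HISSA: 5'-phosphorylated, 32P-labelled 20-nt ssRNA oligos (miR-317 loop, first 5 nt randomized, constant 3' part TGAAATGCAAGCAAG as printed in methods; DNA letters for RNA) incubated 1 h at 25°C in lysate of S2-R+ cells expressing FLAG-AGO2. FLAG-AGO2 was immunopurified and bound oligos were sequenced after splinted ligation. Enrichment factor = IP read count / input read count (raw counts, not library-size normalised); single library, no replicates.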
# 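Also: Per-sequence enrichment computed with FASTAptamer, counting only reads that carry the expected constant 3′ region.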
row,Sequence,AGO2 loading enrichment factor
1,TGGAGTGAAATGCAAGCAAG,1.65
2,CGTTCTGAAATGCAAGCAAG,0.427
3,GGGACTGAAATGCAAGCAAG,2.24
4,TAGGATGAAATGCAAGCAAG,0.829
5,TATGCTGAAATGCAAGCAAG,0.115
6,TTCCATGAAATGCAAGCAAG,0.467
7,TTAGATGAAATGCAAGCAAG,0.428
8,TGCCGTGAAATGCAAGCAAG,0.256
9,CGCTCTGAAATGCAAGCAAG,0.4
10,TGACATGAAATGCAAGCAAG,0.399
11,TAGCGTGAAATGCAAGCAAG,0.318
12,AGCACTGAAATGCAAGCAAG,0.246
13,GGCCCTGAAATGCAAGCAAG,1.06
14,GGGTATGAAATGCAAGCAAG,1.24
15,GCACGTGAAATGCAAGCAAG,0.115
16,AATGCTGAAATGCAAGCAAG,0.0351
17,CGACCTGAAATGCAAGCAAG,0.44
18,CTAACTGAAATGCAAGCAAG,0.401
19,CGTGGTGAAATGCAAGCAAG,1.04
20,AGAGGTGAAATGCAAGCAAG,1.77
21,GTTCTTGAAATGCAAGCAAG,0.313
22,ATGGCTGAAATGCAAGCAAG,0.175
23,GTTGCTGAAATGCAAGCAAG,0.49
24,TGTACTGAAATGCAAGCAAG,0.245
25,GTAGCTGAAATGCAAGCAAG,0.186

row,Sequence,AGO2 loading enrichment factor
1,TGCTCTGAAATGCAAGCAAG,0.0919
2,GCTCGTGAAATGCAAGCAAG,0.0725
3,TGTAATGAAATGCAAGCAAG,0.361
4,GCTAGTGAAATGCAAGCAAG,0.0147
5,AGCGGTGAAATGCAAGCAAG,0.34
6,TCTATTGAAATGCAAGCAAG,0.462
7,AATTTTGAAATGCAAGCAAG,0.346
8,TCATATGAAATGCAAGCAAG,0.464
9,AGTCTTGAAATGCAAGCAAG,0.0682
10,TGGGATGAAATGCAAGCAAG,2.84
11,ACTAGTGAAATGCAAGCAAG,0.264
12,CGCTTTGAAATGCAAGCAAG,0.431
13,GCTGATGAAATGCAAGCAAG,0.107
14,AACTATGAAATGCAAGCAAG,0.378
15,TGCTTTGAAATGCAAGCAAG,0.101
16,CCGACTGAAATGCAAGCAAG,0.685
17,CATCATGAAATGCAAGCAAG,0.329
18,GAACGTGAAATGCAAGCAAG,0.385
19,AACAATGAAATGCAAGCAAG,0.381
20,TGCCATGAAATGCAAGCAAG,0.382
21,TTTGTTGAAATGCAAGCAAG,1.09
22,TTCACTGAAATGCAAGCAAG,0.362
23,TCCGATGAAATGCAAGCAAG,0.37
24,ATTCATGAAATGCAAGCAAG,0.459
25,TGTCGTGAAATGCAAGCAAG,0.539

row,Sequence,AGO2 loading enrichment factor
1,TTATGTGAAATGCAAGCAAG,0.508
2,GAAAATGAAATGCAAGCAAG,0.465
3,ATTTCTGAAATGCAAGCAAG,0.424
4,AACCGTGAAATGCAAGCAAG,0.313
5,TAAAATGAAATGCAAGCAAG,0.458
6,TGTCCTGAAATGCAAGCAAG,0.408
7,GTGTCTGAAATGCAAGCAAG,0.521
8,TATTTTGAAATGCAAGCAAG,0.455
9,CTCGGTGAAATGCAAGCAAG,0.674
10,CCTCGTGAAATGCAAGCAAG,0.297
11,GCTGTTGAAATGCAAGCAAG,0.0862
12,TAACCTGAAATGCAAGCAAG,0.476
13,GCGGATGAAATGCAAGCAAG,0.469
14,ACTTCTGAAATGCAAGCAAG,0.221
15,GGAATTGAAATGCAAGCAAG,0.542
16,AAAGATGAAATGCAAGCAAG,0.364
17,CGGGGTGAAATGCAAGCAAG,6.89
18,ACGAATGAAATGCAAGCAAG,0.492
19,CAGCCTGAAATGCAAGCAAG,0.231
20,CACTCTGAAATGCAAGCAAG,0.261
21,TTTCTTGAAATGCAAGCAAG,0.583
22,TAATGTGAAATGCAAGCAAG,0.271
23,TTGTGTGAAATGCAAGCAAG,0.205
24,CGACGTGAAATGCAAGCAAG,0.404
25,CGTATTGAAATGCAAGCAAG,0.371

row,Sequence,AGO2 loading enrichment factor
1,TCCAGTGAAATGCAAGCAAG,0.399
2,TCCCATGAAATGCAAGCAAG,0.619
3,CAAACTGAAATGCAAGCAAG,0.297
4,GATGATGAAATGCAAGCAAG,0.747
5,CACCCTGAAATGCAAGCAAG,0.295
6,CCCAGTGAAATGCAAGCAAG,0.381
7,TGAAGTGAAATGCAAGCAAG,0.413
8,CACTATGAAATGCAAGCAAG,0.301
9,TAAAGTGAAATGCAAGCAAG,0.364
10,GGACGTGAAATGCAAGCAAG,1.35
11,TAGGCTGAAATGCAAGCAAG,0.127
12,CAGTGTGAAATGCAAGCAAG,0.303
13,GTCGTTGAAATGCAAGCAAG,0.986
14,GGACCTGAAATGCAAGCAAG,0.679
15,TAAATTGAAATGCAAGCAAG,0.349
16,CAAGGTGAAATGCAAGCAAG,0.913
17,CAGCATGAAATGCAAGCAAG,0.183
18,TCTCTTGAAATGCAAGCAAG,0.269
19,ACTACTGAAATGCAAGCAAG,0.398
20,AGCAATGAAATGCAAGCAAG,0.258
21,CGCCTTGAAATGCAAGCAAG,0.382
22,CTAGCTGAAATGCAAGCAAG,0.0681
23,ATGTTTGAAATGCAAGCAAG,0.245
